# According to the supplement of paper PMC8728848:
# The other results are listed elsewhere or left out.
# B1: PX9961T-pdi-555-33-555 (Parabacteroides distasonis) (protein)
# chain: FDEETAFQSPTLVYVNTVASLYNNMFKIMGNDRHVYDLNTFSSDEAMLPCRIGDWEDGGLWQNIFLHRWGTMNDLTKNSWDFLYEQIGKCNQSVDKLQAFAEEQPDVEYFKVYLEEVRAVRAFFYYELLDLFARVPLVTSSTTPMSEVKQSERSVVFNFVRSELEEALPYLSDNRSNQKGEYYGRITKPVAYMILAKLALNAEVYADDNWTDGNRPAGKNIKFTVDGKEMNAWEATIAYVDKLEALGYKLQGNFSENFAVANETSVENIFTVPMDPVAYPDAKDYNLVRTRHYDHATAYGQSGWNGSCATVKAMNVFKFGTADEDPRCKLTYFTGEVTGPDGKTIYTEWDGQKVPLKYEPNAPKVYMDASDGLLVKTAGARMAKYEFDQNAQDGGNLHGNDCVIFRFADALLMKAEAKIRLGQNGDDEVNQVRNRVGAKPLQNVTLDTLLDERMLELAWEGVRRQDLIRFGKFTEATVDRYVGVKHFASSLDYQEDKTGYTTVFSIYADILSLNPNLTQNPGY
# How the values were obtained:
# Assay in all cases: glycan array binding signal (z-score within array); higher = stronger binding
# Conditions in all cases: glycan notation: IUPAC condensed, linker removed
# Gal6S(b1-4)Glc6S = target: Gal6S(b1-4)Glc6S
# Method in brief: (§1)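 The binding signal is a Z-score computed within each array. Data were drawn from 3228 arrays in the Consortium for Functional Glycomics database, restricted to those with a known protein sequence. Scores were averaged over arrays of the same protein sequence at different concentrations or buffers, and over linkers, and negative values can be taken as non-binding.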
# Gal6S(b1-4)GlcNAc = target: Gal6S(b1-4)GlcNAc
# Method in brief: as §1
# Gal6S(b1-4)GlcNAc6S = target: Gal6S(b1-4)GlcNAc6S
# Method in brief: as §1
# GalNAc(a1-3)Gal = target: GalNAc(a1-3)Gal
# Method in brief: as §1
# GalNAc(a1-3)GalNAc = target: GalNAc(a1-3)GalNAc
# Method in brief: as §1
# [1] = target: GalNAc(a1-3)GalNAc(b1-3)Gal(a1-4)Gal(b1-4)Glc
# Method in brief: as §1
# [2] = target: GalNAc(a1-3)GalNAc(b1-3)Gal(a1-4)Gal(b1-4)GlcNAc
# Method in brief: as §1
# GalNAc(b1-3)Gal = target: GalNAc(b1-3)Gal
# Method in brief: as §1
# [3] = target: GalNAc(b1-3)Gal(a1-4)Gal(b1-4)GlcNAc
# Method in brief: as §1
# [4] = target: GalNAc(b1-3)Gal(a1-4)Gal(b1-4)GlcNAc(b1-3)Gal(b1-4)Glc
# Method in brief: as §1
# [5] = target: GalNAc(b1-3)Gal(a1-6)Gal(b1-4)Glc
# Method in brief: as §1
# GalNAc(b1-3)GalNAc = target: GalNAc(b1-3)GalNAc
# Method in brief: as §1
# GalNAc(b1-3)GlcNAc = target: GalNAc(b1-3)GlcNAc
# Method in brief: as §1
# GalNAc(b1-4)Gal(b1-4)Glc = target: GalNAc(b1-4)Gal(b1-4)Glc
# Method in brief: as §1
# GalNAc(b1-4)GlcNAc = target: GalNAc(b1-4)GlcNAc
# Method in brief: as §1
# [6] = target: GalNAc(b1-4)GlcNAc(b1-2)Man
# Method in brief: as §1
# [7] = target: GalNAc(b1-4)GlcNAc(b1-2)Man(a1-3)[GalNAc(b1-4)GlcNAc(b1-2)Man(a1-6)]Man(b1-4)GlcNAc(b1-4)GlcNAc
# Method in brief: as §1
# [8] = target: GalNAc(b1-4)GlcNAc(b1-3)GalNAc(b1-4)GlcNAc
# Method in brief: as §1
# GalNAc(b1-4)GlcNAc6S = target: GalNAc(b1-4)GlcNAc6S
# Method in brief: as §1
# GalNAc(b1-6)GalNAc = target: GalNAc(b1-6)GalNAc
# Method in brief: as §1
# GalNAc3S(b1-4)GlcNAc = target: GalNAc3S(b1-4)GlcNAc
# Method in brief: as §1
# GalNAc3S(b1-4)GlcNAc3S = target: GalNAc3S(b1-4)GlcNAc3S
# Method in brief: as §1
# [9] = target: GalNAc3S(b1-4)[Fuc(a1-3)]GlcNAc
# Method in brief: as §1
# GalNAc4S6S(b1-4)GlcNAc = target: GalNAc4S6S(b1-4)GlcNAc
# Method in brief: as §1
# GalNAc6S(b1-4)GlcNAc = target: GalNAc6S(b1-4)GlcNAc
# Method in brief: as §1
# Glc(a1-4)Glc = target: Glc(a1-4)Glc
# Method in brief: as §1
# [10] = target: Glc(a1-4)Glc(a1-4)Glc(a1-4)Glc
# Method in brief: as §1
# Glc(a1-6)Glc(a1-6)Glc = target: Glc(a1-6)Glc(a1-6)Glc
# Method in brief: as §1
# [11] = target: Glc(a1-6)Glc(a1-6)Glc(a1-6)Glc
# Method in brief: as §1
# Glc(b1-4)Glc = target: Glc(b1-4)Glc
# Method in brief: as §1
# Glc(b1-6)Glc = target: Glc(b1-6)Glc
# Method in brief: as §1
# GlcA(b1-3)Gal = target: GlcA(b1-3)Gal
# Method in brief: as §1
# GlcA(b1-3)GlcNAc = target: GlcA(b1-3)GlcNAc
# Method in brief: as §1
# GlcA(b1-6)Gal = target: GlcA(b1-6)Gal
# Method in brief: as §1
# [12] = target: GlcA3S(b1-3)Gal(b1-4)GlcNAc(b1-2)Man
# Method in brief: as §1
# [13] = target: GlcA3S(b1-3)Gal(b1-4)GlcNAc(b1-3)Gal(b1-4)Glc
# Method in brief: as §1
# [14] = target: GlcNAc(a1-3)Gal(b1-4)GlcNAc
# Method in brief: as §1
binder,measurement,setting,value
B1,glycan array binding signal (z-score),Gal6S(b1-4)Glc6S,-0.372
same,glycan array binding signal (z-score),Gal6S(b1-4)GlcNAc,-0.019
same,glycan array binding signal (z-score),Gal6S(b1-4)GlcNAc6S,0.07
same,glycan array binding signal (z-score),GalNAc(a1-3)Gal,-0.623
same,glycan array binding signal (z-score),GalNAc(a1-3)GalNAc,-0.388
same,glycan array binding signal (z-score),[1],0.214
same,glycan array binding signal (z-score),[2],-0.368
same,glycan array binding signal (z-score),GalNAc(b1-3)Gal,-0.387
same,glycan array binding signal (z-score),[3],0.642
same,glycan array binding signal (z-score),[4],0.301
same,glycan array binding signal (z-score),[5],0.464
same,glycan array binding signal (z-score),GalNAc(b1-3)GalNAc,0.288
same,glycan array binding signal (z-score),GalNAc(b1-3)GlcNAc,-0.214
same,glycan array binding signal (z-score),GalNAc(b1-4)Gal(b1-4)Glc,0
same,glycan array binding signal (z-score),GalNAc(b1-4)GlcNAc,-0.058
same,glycan array binding signal (z-score),[6],-0.588
same,glycan array binding signal (z-score),[7],0.877
same,glycan array binding signal (z-score),[8],0.094
same,glycan array binding signal (z-score),GalNAc(b1-4)GlcNAc6S,-0.349
same,glycan array binding signal (z-score),GalNAc(b1-6)GalNAc,-0.518
same,glycan array binding signal (z-score),GalNAc3S(b1-4)GlcNAc,-0.622
same,glycan array binding signal (z-score),GalNAc3S(b1-4)GlcNAc3S,-0.306
same,glycan array binding signal (z-score),[9],-0.836
same,glycan array binding signal (z-score),GalNAc4S6S(b1-4)GlcNAc,-0.196
same,glycan array binding signal (z-score),GalNAc6S(b1-4)GlcNAc,-0.073
same,glycan array binding signal (z-score),Glc(a1-4)Glc,-0.426
same,glycan array binding signal (z-score),[10],-0.315
same,glycan array binding signal (z-score),Glc(a1-6)Glc(a1-6)Glc,0.357
same,glycan array binding signal (z-score),[11],-0.341
same,glycan array binding signal (z-score),Glc(b1-4)Glc,-0.432
same,glycan array binding signal (z-score),Glc(b1-6)Glc,0.449
same,glycan array binding signal (z-score),GlcA(b1-3)Gal,-0.265
same,glycan array binding signal (z-score),GlcA(b1-3)GlcNAc,-0.422
same,glycan array binding signal (z-score),GlcA(b1-6)Gal,-0.557
same,glycan array binding signal (z-score),[12],-0.676
same,glycan array binding signal (z-score),[13],-0.546
same,glycan array binding signal (z-score),[14],0.406
